Measurements as given in PubChem BioAssay AID1159614 (National Center for Advancing Translational Sciences (NCATS), 2016).
Out of some 45,000 compounds screened, about 65 (0.1%) were called active. Calls come from the whole dose curve; as a rule, active = well fitted activation curve with a large enough effect; inconclusive = small, poorly fitted or top-dose-only effect; inactive = no such curve, though single readings can be large or run the other way. This is one part of the list.

Target: Galactocerebrosidase (Homo sapiens) (UniProt P54803)
UniProt P54803, sequence (P54803 whole entry, looked up): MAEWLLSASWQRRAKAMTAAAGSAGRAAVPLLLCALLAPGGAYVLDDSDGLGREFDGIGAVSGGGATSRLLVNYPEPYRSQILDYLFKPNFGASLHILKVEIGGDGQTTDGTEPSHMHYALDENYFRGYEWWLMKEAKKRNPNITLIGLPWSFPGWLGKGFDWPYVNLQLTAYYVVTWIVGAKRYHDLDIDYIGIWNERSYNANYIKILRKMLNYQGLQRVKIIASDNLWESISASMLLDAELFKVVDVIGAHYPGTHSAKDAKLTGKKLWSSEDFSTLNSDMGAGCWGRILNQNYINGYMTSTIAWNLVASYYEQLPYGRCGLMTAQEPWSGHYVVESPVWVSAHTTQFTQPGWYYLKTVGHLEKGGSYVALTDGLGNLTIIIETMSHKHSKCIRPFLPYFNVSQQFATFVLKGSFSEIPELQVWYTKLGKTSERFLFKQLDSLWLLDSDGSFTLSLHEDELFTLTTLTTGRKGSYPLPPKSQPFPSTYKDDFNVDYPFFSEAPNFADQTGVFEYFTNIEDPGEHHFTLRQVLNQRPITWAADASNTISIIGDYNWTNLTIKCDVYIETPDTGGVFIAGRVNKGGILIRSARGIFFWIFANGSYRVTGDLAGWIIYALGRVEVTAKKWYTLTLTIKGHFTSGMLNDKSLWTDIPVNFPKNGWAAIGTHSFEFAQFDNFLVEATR
Assay: A Novel Cell-Based Assay to Identify Small Molecules for B -Galactocerebrosidase; note: 0% is about no effect; nearly all actives have a fitted effect of over 65% in size
Settings: 145M-Twi-hGALC-G270D cells, HMU-beta-Gal fluorescence, 48 h; series mostly up to 57.5 µM; activation: at the top concentration
Summary of the method: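 qHTS, 1536-well; 145M-Twi-hGALC-G270D cells (WT line also made) in DMEM/F12 + 10% FBS; compound incubation on live cells; HMU-β-gal 0.1 mM final, pH 5.2, NaTC; carbonate stop; fluorescence increase = enhanced residual activity.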

activation, inactive:
O=C(CSc1nc(=O)n(CCN2CCOCC2)c2c1CCC2)Nc1cccc(Cl)c1 -15.6%
COc1ccc(C(CNC(=O)Cc2ccc(Cl)cc2)N2CCOCC2)cc1 (configuration not stated) -7.35%
O=C(CC(c1cccs1)N1Cc2ccccc2C1=O)Nc1ccc(F)cc1F (configuration not stated) -20.1%
CCc1ccccc1NC(=O)CSc1nc2ncccc2o1 1.82%
O=C(CCc1ccccc1)N1CCc2c([nH]c3ccccc23)C1c1ccc(Cl)cc1 (configuration not stated) -36.5%
O=c1c2c3c(sc2n(Cc2ccccc2F)c(=O)n1-c1ccc(Cl)cc1)CCCC3 -13.6%
COC(=O)c1ccc(Cl)cc1NC(=O)NC(C)c1c(-n2cccc2)sc(C)c1C (configuration not stated) -9.37%
COc1ccc(NC(=O)CCc2nc3cccnc3n2-c2ccccc2)cc1Cl -11.2%
COc1cc(NC(=O)CN2C(=O)C(c3ccc(Cl)cc3)=NC23CCCCC3)cc(OC)c1 8.65%
Cc1ccc(C2=CC(c3ccc(Cl)cc3)n3nc(-c4ccc(C)cc4)nc3N2)cc1 (configuration not stated) -24.5%
CC(C)c1ccc(C2c3c(oc4ccc(Cl)cc4c3=O)C(=O)N2CCCN2CCOCC2)cc1 (configuration not stated) -6.18%
Cc1cccc(C(=O)N2CCC(N3CCN(Cc4ccc(F)cc4)C(=O)C3=O)CC2)c1 -15.9%
Cc1cc2c(cc3c(SCc4cccc(F)c4)nnc(C)n32)o1 -42.2%
Cc1ccc(O)c(NC(=O)c2cc(-c3ccc(F)cc3)on2)c1 -12.9%
COc1ccc(CCNC(=O)c2ccc3c(c2)N(Cc2ccccc2Cl)C(=O)c2ccccc2S3)cc1OC -11.2%
CCOC(=O)c1cc2c(=O)n3ccccc3nc2n(CC2CCCO2)c1=NC(=O)c1cccc(C)c1 (configuration not stated) -11.2%
O=C(COc1ccccc1F)Nc1nnc(SCc2cc(=O)n3ccccc3n2)s1 -2.61%
CCOC(=O)c1c(NC(=O)Nc2ccc(F)cc2)sc(C(=O)N(C)C)c1C -9.88%
Cc1ccccc1Cn1nnc2sc3c(c2c1=O)CCCC3 -25.2%
O=C(CS(=O)(=O)c1cccc2nsnc12)NCc1ccccc1Cl -13%
Cc1ccc(CN2c3ccccc3-c3nc(SCC(=O)NCc4ccccc4)ncc3S2(=O)=O)cc1 -14.3%
COc1ccc(C(=O)NCCc2csc(-c3ccc(Cl)cc3)n2)cc1 -13.9%
Cn1cc(CCCC(=O)NCc2cccc(Br)c2)c2ccccc21 -14.7%
O=c1c(NCc2cccs2)nccn1-c1ccccc1 -8.06%
COc1ccc(-n2cc(-c3ccccc3)c3c(N4CCCC(C)C4)ncnc32)cc1 (configuration not stated) 1.24%
CCc1nc2ccc(C(=O)NCc3ccccc3C)cc2nc1CC -2.48%
COc1ccc(-c2cccc(NS(=O)(=O)c3cc(C(F)(F)F)ccc3Cl)c2)nn1 -12.8%
CCC(=O)C1=C(c2ccccc2)N(C(=O)CC)n2c(nnc2-c2ccccc2)S1 -12.4%
Cc1ccc(N(CC(=O)Nc2ccc(F)cc2F)S(=O)(=O)c2cccs2)cc1 -34%
Cc1ccc(S(=O)(=O)NCCc2nnc3ccc(SCc4ccccc4F)nn23)cc1 -4.1%
Cc1cc(C)c(NC(=O)c2c(C)oc3c2C2=NCCN2C=N3)c(C)c1 -13.2%
Cc1cc(C)c(NC(=O)CN2C(=O)C3(SCC(=O)N3c3ccc(F)cc3)c3ccccc32)c(C)c1 (configuration not stated) -19.1%
Cc1cccc(N2CCN(C(=O)C(C)n3nc(C)n4c(cc5occc54)c3=O)CC2)c1C (configuration not stated) -3.49%
CCCCCCc1cc2cc(-c3nnc(-c4cccc(Cl)c4)o3)c(=O)oc2cc1O -4.44%
COc1cccc(NC(=O)Cn2c(=O)n(Cc3ccc(C(=O)NCc4ccc5c(c4)OCO5)cc3)c(=O)c3ccccc32)c1 -14%
CN(C)c1ccc(CNC(=O)C2CCN(S(=O)(=O)c3ccc4c(c3)oc(=O)n4C)CC2)cc1 -11.8%
Cc1ccc(S(=O)(=O)N2CCCc3cc(NS(=O)(=O)c4ccc(F)cc4)ccc32)cc1 6.19%
CCN(CC)S(=O)(=O)c1ccc(-c2csc(=Nc3cccc(C(F)(F)F)c3)n2Cc2ccc3c(c2)OCO3)cc1 -15.5%
COc1ccc(C2c3c(n(C)c4ccccc34)C(=O)N2CC(=O)Nc2ccc(C)cc2Cl)cc1 (configuration not stated) -10.4%
CCc1ccc(CNC(=O)Cn2nc(-c3ccc(Cl)cc3)ccc2=O)cc1 -12.8%
CCC(Oc1ccc(F)cc1)C(=O)Nc1nc2c(s1)CCCC2 (configuration not stated) -17%
CCc1ccc(-c2cc(C)no2)cc1S(=O)(=O)NCc1ccco1 2.39%
CC(=O)Nc1cccc(O)c1 -18.5%
O=C(NC1CCCCC1)c1ccc(Cn2c(SCc3ccccc3)nc3cccnc32)cc1 -14%
O=C(Nc1ccc(F)cc1)c1oc2ccccc2c1NC(=O)C1CCCCC1 1.83%
Cc1cccc(C(=O)N2CCCCC2CCN2CCCCC2)c1 (configuration not stated) -3.32%
COc1ccc(C(=O)N2c3nc(-c4ccco4)nn3C3(CCCCC3)[C@@H]3CCCC[C@@H]32)cc1OC -11.9%
Cc1ccc(N2CCN(S(=O)(=O)c3nnc(NC(=O)c4ccccc4)s3)CC2)cc1 -13.2%
Cc1c(C)n(Cc2ccccc2)c2ccc(C(=O)NCC(C)c3ccccc3)cc12 (configuration not stated) -6.85%
COc1ccc(N2CCN(C(=O)c3cc4c(=O)oc5ccc(C)cc5c4s3)CC2)cc1 6.3%
CCCCNc1nc2c(S(=O)(=O)c3ccc(C)cc3)nnn2c2ccsc12 1.76%
CCOc1ccc(N2CC(NC(=O)c3ccc4c(c3)OCO4)CC2=O)cc1 (configuration not stated) -6.54%
Cc1cc(C)n(CCC(=O)Nc2ccc(Cl)cc2)n1 -7.49%
Cc1ccc(C)c(N2CCN(c3nc4ccc(C)cc4nc3-n3nc(C)cc3C)CC2)c1 -6.78%
CCOCCc1nnc(NC(=O)C(=O)c2cc(C)n(-c3ccc(C)c(C)c3)c2C)s1 -10.6%
O=C(Cn1cnc2nc3c(cc2c1=O)CCCC3)Nc1ccc(F)cc1Cl -25.5%
CCOc1ccc(CCNC(=O)c2ccc(-n3c(C)cc4c3CCCC4)cc2)cc1OCC -22.8%
CCOC(=O)CNC(=O)c1cc2c(=O)oc3ccccc3c2s1 -15.3%
COC(=O)c1sccc1S(=O)(=O)N(CC(=O)Nc1cc(C)ccc1C)c1ccc(C)c(C)c1 -6.6%
CCC(C)NC(=O)c1ccc2c(c1)sc1nc(-c3ccc(OC)cc3)cn12 (configuration not stated) -8.03%
Cc1ccc(N2CC(NC(=O)c3ccc(S(=O)(=O)N(C)C)cc3)CC2=O)cc1C (configuration not stated) -12.8%
O=C(NCC(c1cccs1)S(=O)(=O)c1cccs1)c1ccc(F)c(F)c1 (configuration not stated) 3.03%
CCOc1ccc(CCNC(=O)c2ccc3c(c2)N(Cc2ccc(F)cc2)CCS3)cc1 -16.4%
COc1ccccc1CNC(=O)CSc1nc(-c2ccc(OC)c(OC)c2)cc(C(F)(F)F)n1 -8.86%
O=C(Cn1cc(S(=O)(=O)Cc2cccc(Cl)c2)c2ccccc21)Nc1ccccc1C(F)(F)F -20.2%
O=C(CSc1nc2c([nH]c3ccccc32)c(=O)n1-c1cccc(Cl)c1)N1CCCC1 -1.88%
Clc1ccc(CSc2ccc(-c3cccs3)nn2)cc1 8.92%
COc1ccc(C(=O)NCCSc2c[nH]c3ccccc23)cc1OC -14%
COc1ccc(-n2c(=O)c3c4c(sc3n(Cc3ccc(F)cc3)c2=O)CN(C(C)=O)CC4)c(OC)c1 -20.7%
CSc1ncc(C(=O)Nc2cc(C)cc(C)c2)c(-c2ccccc2)n1 4.44%
CCC(CC)C(=O)N1c2ccccc2C(C)(c2ccccc2)CC1(C)C (configuration not stated) -4.78%
CCc1ccc2oc(-c3ccc(C)c(NC(=O)c4cc([N+](=O)[O-])ccc4N4CCOCC4)c3)nc2c1 -10.9%
CCCCc1ccc(-n2nc3ccc(NC(=O)c4cc5ccccc5o4)cc3n2)cc1 -1.65%
CCOC(=O)Cn1c(=O)oc2cc(S(=O)(=O)N3CCN(c4cccc(Cl)c4)CC3)ccc21 -20.6%
CCOCCCn1c(SCC(=O)Nc2ccccc2CC)nc2ccccc2c1=O -21.8%
Nc1ccc(C(=O)N2CC3CC(CN(Cc4ccccc4)C3)C2)cc1 -8.59%
O=C(O)c1sc(Nc2ccccc2)nc1-c1ccccc1 -0.272%
CC(=O)N1CCc2c(sc3c2c(=O)n(Cc2ccccc2)c(=O)n3Cc2ccc(Cl)cc2)C1 -9.08%
CN1CCN(C(CNC(=O)c2ccc(F)cc2)c2ccc3c(c2)OCO3)CC1 (configuration not stated) -4.16%
COc1ccc(OC)c(CCNC(=O)c2c(C)oc3ncn(CC(C)C)c(=O)c23)c1 -13.1%
Cc1cc(C)c(Cn2c(=O)n(CCC(=O)NCCc3ccccc3)c(=O)c3ccccc32)c(C)c1 -11.1%
CCN(CC)c1ccc(C(=O)N2CCc3c([nH]c4ccccc34)C2c2ccc(F)cc2)cc1 (configuration not stated) -4.86%
Cc1ccc(NC(=O)c2cccc3c(=O)c4c([nH]c23)CCCC4)c(C)c1 -6.9%
COc1cccc(CNC(=O)c2c(C)nn(-c3ccc(F)cc3)c2-n2cccc2)c1 -36.1%
Cc1ccc(NC(=O)Nc2nnc(SCC(=O)N(C(C)C)C(C)C)s2)cc1 -12.7%
CCOC(=O)c1sc2ccccc2c1S(=O)(=O)Nc1ccc(OC)c(Cl)c1 -11.1%
CCOc1ccc(NC(=O)Nc2nnc(N3CCCCC3C)s2)cc1 (configuration not stated) -6.53%
CC(=O)c1ccc(NC(=O)Cn2c(=O)cc(C)c3c(C)nn(-c4cccc(F)c4)c32)cc1 -1.26%
CCC(Oc1ccccc1)C(=O)Nc1cccc(OCc2cc(=O)n3cccc(C)c3n2)c1 (configuration not stated) 10.1%
CCOC(=O)c1cccc(NC(=O)CCn2c(=O)oc3ccccc32)c1 -14.2%
Cc1c(C)c2c(cc(C)c3c(-c4ccc(Br)cc4)coc32)oc1=O -17.1%
Cc1ccc(CSc2nnc([C@@H](N)C(C)C)o2)cc1 -19.4%
Cc1cccc(-c2nc3c4c(-c5ccccc5)c(-c5ccccc5)oc4ncn3n2)c1 -16.7%
CCN(CC)c1ccc(C(=O)NCc2nc3cccnc3n2Cc2ccc(C)cc2)cc1 -5.84%
Cc1ccc(C2N=C(N)Nc3nc4ccccc4n32)cc1 (configuration not stated) -3.39%
Cc1cccc(NC(=O)Cn2cc(S(=O)(=O)N3CCCC3)c(S(=O)(=O)N3CCCC3)c2)c1C -0.391%
CCC1CCc2nc3sc(C(=O)Nc4cccc(F)c4)c(N)c3cc2C1 (configuration not stated) -17.1%
